Laboratory results from paper PMC12592532.
No constants are given. Whether binding was seen depends on the method and setting. Binding seen in cells or lysates may run through a third protein.

The chains behind the UniProt entries cited, without tags or fusion partners.
UniProt Q8N122: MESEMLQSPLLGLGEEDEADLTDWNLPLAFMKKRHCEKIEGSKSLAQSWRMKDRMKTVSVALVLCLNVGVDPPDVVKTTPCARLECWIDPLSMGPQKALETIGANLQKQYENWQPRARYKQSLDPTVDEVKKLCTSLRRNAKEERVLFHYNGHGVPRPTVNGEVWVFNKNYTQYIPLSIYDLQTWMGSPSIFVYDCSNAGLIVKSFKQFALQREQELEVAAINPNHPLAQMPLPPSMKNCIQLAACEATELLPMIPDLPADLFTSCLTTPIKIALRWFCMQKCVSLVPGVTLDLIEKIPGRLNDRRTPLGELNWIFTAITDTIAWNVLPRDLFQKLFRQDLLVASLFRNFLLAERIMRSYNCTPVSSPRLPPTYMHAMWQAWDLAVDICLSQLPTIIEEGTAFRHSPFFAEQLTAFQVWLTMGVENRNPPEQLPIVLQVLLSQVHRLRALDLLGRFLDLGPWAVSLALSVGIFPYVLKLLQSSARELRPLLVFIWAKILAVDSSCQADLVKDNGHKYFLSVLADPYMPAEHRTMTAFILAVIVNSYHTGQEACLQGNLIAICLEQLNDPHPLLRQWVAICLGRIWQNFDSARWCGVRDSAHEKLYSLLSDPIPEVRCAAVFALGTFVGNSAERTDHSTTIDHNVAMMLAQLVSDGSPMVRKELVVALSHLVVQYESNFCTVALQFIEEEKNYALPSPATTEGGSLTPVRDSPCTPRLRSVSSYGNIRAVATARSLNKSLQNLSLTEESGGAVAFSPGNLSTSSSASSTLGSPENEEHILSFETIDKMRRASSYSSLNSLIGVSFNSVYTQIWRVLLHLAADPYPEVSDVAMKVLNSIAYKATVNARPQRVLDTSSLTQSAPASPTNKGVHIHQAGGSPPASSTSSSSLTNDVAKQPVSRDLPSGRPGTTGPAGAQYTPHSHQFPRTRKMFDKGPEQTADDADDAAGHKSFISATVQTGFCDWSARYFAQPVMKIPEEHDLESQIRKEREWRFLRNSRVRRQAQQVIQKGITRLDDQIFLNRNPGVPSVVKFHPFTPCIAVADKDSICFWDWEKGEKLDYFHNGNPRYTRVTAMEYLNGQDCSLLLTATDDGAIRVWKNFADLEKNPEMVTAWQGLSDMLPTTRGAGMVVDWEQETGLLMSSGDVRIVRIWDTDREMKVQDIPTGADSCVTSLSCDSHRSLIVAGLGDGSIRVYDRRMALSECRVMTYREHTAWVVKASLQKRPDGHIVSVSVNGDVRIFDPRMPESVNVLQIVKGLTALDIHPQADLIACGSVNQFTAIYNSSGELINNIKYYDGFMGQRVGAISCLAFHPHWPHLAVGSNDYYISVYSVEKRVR

Target: T1, PTPN22 (protein tyrosine phosphatase non-receptor type 22) (human (endogenous in Jurkat, HEK293T, HeLa)) (UniProt Q9Y2R2)
T1 sequence: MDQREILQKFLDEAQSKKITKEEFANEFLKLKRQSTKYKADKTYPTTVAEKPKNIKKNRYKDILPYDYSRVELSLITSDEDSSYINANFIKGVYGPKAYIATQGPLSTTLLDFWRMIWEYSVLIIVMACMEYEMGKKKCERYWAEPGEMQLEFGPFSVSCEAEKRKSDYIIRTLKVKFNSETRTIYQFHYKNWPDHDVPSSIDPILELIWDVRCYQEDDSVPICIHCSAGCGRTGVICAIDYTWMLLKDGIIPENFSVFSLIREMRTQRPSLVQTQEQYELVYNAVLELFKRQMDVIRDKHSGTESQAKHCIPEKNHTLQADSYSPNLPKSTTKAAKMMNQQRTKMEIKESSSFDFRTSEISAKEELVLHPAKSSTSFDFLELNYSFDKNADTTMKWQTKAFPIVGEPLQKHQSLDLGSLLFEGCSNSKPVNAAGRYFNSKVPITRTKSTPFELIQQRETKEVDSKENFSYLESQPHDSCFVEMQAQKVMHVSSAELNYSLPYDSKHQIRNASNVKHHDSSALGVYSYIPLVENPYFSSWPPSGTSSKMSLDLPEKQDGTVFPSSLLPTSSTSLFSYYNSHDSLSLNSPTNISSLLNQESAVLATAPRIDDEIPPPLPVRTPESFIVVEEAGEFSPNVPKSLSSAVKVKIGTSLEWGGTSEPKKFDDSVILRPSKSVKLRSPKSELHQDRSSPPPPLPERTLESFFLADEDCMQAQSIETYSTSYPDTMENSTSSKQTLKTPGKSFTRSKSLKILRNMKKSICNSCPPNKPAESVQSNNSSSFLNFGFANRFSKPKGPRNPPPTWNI
Assay: co-IP; endogenous proteins; Jurkat cells lysed in 0.3% CHAPS buffer; IP with control IgG or anti-PTPN22 antibody, immunoblot (Fig. 1B, 3B)

binding: no binding
Substance: RAPTOR (Regulatory associated protein of mTOR) (from UniProt Q8N122 1-1335)
